# Measured values reported in publication PMC4336329 (PLoS ONE, 2015).
# In all, about 310,000 compounds went through this assay and about 14,000 (4.5%) showed an effect of 50% or more. The effect is printed as a negative number. This is one part of the list.
# Biological target: human ether-à-go-go-related gene (hERG) potassium channel (human, UniProt Q12809)
# Assay: primary screen, population patch clamp on CHO cells stably expressing hERG
# 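Also: peak tail current of the secondary pulse compared with the same well before compound.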
# Chain of human ether-à-go-go-related gene (hERG) potassium channel (Q12809 whole entry, looked up): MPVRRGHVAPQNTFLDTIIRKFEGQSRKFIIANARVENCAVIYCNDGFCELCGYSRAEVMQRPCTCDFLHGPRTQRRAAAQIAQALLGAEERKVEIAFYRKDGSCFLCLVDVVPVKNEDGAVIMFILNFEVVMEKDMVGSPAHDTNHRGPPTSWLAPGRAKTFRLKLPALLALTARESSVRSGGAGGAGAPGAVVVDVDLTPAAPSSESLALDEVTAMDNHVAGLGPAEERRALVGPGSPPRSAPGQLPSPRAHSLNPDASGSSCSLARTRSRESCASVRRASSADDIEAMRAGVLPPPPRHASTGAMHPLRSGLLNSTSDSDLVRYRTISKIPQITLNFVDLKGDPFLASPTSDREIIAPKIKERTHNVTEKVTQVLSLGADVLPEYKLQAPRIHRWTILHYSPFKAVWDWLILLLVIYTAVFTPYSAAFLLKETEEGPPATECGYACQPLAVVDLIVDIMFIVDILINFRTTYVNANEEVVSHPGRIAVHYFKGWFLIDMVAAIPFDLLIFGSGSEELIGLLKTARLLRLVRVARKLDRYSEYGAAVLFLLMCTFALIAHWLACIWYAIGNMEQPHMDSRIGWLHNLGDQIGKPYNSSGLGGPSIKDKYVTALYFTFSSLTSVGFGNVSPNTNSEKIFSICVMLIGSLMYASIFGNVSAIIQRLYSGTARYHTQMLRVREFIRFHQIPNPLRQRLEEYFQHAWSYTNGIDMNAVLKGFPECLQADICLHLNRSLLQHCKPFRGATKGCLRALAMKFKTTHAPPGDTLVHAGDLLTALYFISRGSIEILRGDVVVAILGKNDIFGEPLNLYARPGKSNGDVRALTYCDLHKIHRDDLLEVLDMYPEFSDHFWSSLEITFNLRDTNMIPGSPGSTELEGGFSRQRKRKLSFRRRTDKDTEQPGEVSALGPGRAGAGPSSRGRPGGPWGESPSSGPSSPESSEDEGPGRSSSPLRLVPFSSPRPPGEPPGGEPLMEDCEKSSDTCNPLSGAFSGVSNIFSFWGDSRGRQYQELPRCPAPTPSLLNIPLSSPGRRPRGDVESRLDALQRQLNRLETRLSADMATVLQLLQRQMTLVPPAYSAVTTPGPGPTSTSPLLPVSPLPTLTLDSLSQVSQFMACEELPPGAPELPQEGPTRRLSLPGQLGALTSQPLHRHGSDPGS
row,SMILES,"hERG current change (%, negative = inhibition) at 10uM"
1,O=C(/C=C/c1ccc(O)cc1)c1ccc(NC2=C(N3CCCCC3)C(=O)c3ccccc3C2=O)cc1,-7.85%
2,Cc1ccnc2nc(C(=O)OCC(=O)NC3CCC(C)CC3)nn12 (stereo not drawn),-13.1%
3,Cc1sc2ncnc(Sc3nc4ccccc4s3)c2c1C,5.53%
4,O=C(O)c1sccc1SCc1ccc(Cl)c(Cl)c1,14.1%
5,CCC(C)NC(=O)c1n[nH]c(=O)c2ccccc12 (stereo not drawn),-3.51%
6,COc1ccc(NC(=O)C2(S(=O)(=O)c3ccc(C)cc3)CC2)cc1OC,1.87%
7,CCCNC(=O)c1c(CSc2ccc(Cl)cc2)noc1C(=O)NCc1ccccc1,3.39%
8,Cc1ccccc1NS(=O)(=O)c1ccc2c(c1)n(C)c(=O)n2C,-2.17%
9,CCCC1(c2ccccc2)NC(=O)N(CC(=O)Nc2sc(-c3ccccc3)cc2C(=O)OCC)C1=O (stereo not drawn),17.9%
10,COc1ccc(NS(=O)(=O)c2cccc(C(=O)N3CCCCCC3)c2)cc1,-14%
11,CCc1ccccc1NC(=O)c1sc2nc(C)cc(C)c2c1N,0.897%
12,C/C(=N\NC(=O)NC1CCCCC1)c1ccc(Cl)s1,18.5%
13,Cc1ccc(Cl)cc1Nc1nc(N2CCOCC2)nc(N2CCOCC2)n1,2.37%
14,CCOc1ccccc1NC(=O)CSc1ccc([N+](=O)[O-])cc1,22.3%
15,Cc1nnc(SCC(=O)Nc2nc3ccccc3s2)n(N)c1=O,-5.14%
16,COc1ccc(C2CC(=O)Oc3c(C(CCN4CCOCC4)c4cc(OC)c(OC)c(OC)c4)c(OC)cc(OC)c32)cc1 (stereo not drawn),-17.3%
17,Cc1ccc2[nH]c(=O)c(C(c3nnnn3CC3CCCO3)N3CCCc4ccccc43)cc2c1 (stereo not drawn),-17.5%
18,CCC(=O)Nc1ccc(-c2ccc(N3CCCCC3)nn2)cc1,16.1%
19,CCCCOc1ccc(-c2nc(-c3cccnc3)no2)cc1,-3.6%
20,CC(NC(=O)COc1ccc(Br)cc1)C1CCCO1 (stereo not drawn),10.8%
21,CCOc1ccc(CN2CCN(Cc3cccn3-c3ncccn3)CC2CCO)cc1 (stereo not drawn),-78.3%
22,COc1ccc(Cc2nnc(SCC(=O)NC3(C#N)CCCCC3)n2N)cc1,9.35%
23,O=C(Nc1ccc2c(c1)OCO2)c1ccc(S(=O)(=O)NCC2CCCO2)cc1 (stereo not drawn),2%
24,COC(=O)c1ccc(NC(=O)c2ccccc2NS(C)(=O)=O)cc1,19.3%
